Laboratory results taken from a compilation of properties of binary mixtures (doi:10.1021/jp3059905).
The densities may have been worked out from excess volumes.

Assay: xn = mol fraction of the nth substance listed
Settings: 298.15 K, 101 kPa

## CCCC[n+]1ccn(C)c1.O=S(=O)([N-]S(=O)(=O)C(F)(F)F)C(F)(F)F + Cn1cc[n+](C)c1.O=S(=O)([N-]S(=O)(=O)C(F)(F)F)C(F)(F)F
x2 = 0
  mass density: 1436.9 kg/m3

## CC[n+]1ccn(C)c1.O=S(=O)([N-]S(=O)(=O)C(F)(F)F)C(F)(F)F + CCCC[n+]1ccn(C)c1.O=S(=O)([N-]S(=O)(=O)C(F)(F)F)C(F)(F)F
x1 = 0.2159
  mass density: 1446.9 kg/m3
x1 = 0.4997
  mass density: 1466.1 kg/m3
x1 = 0.7753
  mass density: 1492 kg/m3
x1 = 1
  mass density: 1519.3 kg/m3

## CCCCCCCCCC[n+]1ccn(C)c1.O=S(=O)([N-]S(=O)(=O)C(F)(F)F)C(F)(F)F + CCCC[n+]1ccn(C)c1.O=S(=O)([N-]S(=O)(=O)C(F)(F)F)C(F)(F)F
x2 = 0.2147
  mass density: 1305.9 kg/m3
x2 = 0.4052
  mass density: 1332.6 kg/m3
x2 = 0.5999
  mass density: 1362.8 kg/m3

## CCCCCn1cc[n+](C)c1.O=S(=O)([N-]S(=O)(=O)C(F)(F)F)C(F)(F)F + CCCC[n+]1ccn(C)c1.O=S(=O)([N-]S(=O)(=O)C(F)(F)F)C(F)(F)F
x2 = 0.2054
  mass density: 1405 kg/m3
x2 = 0.3981
  mass density: 1415.8 kg/m3
x2 = 0.5057
  mass density: 1420.7 kg/m3
x2 = 0.5851
  mass density: 1424.4 kg/m3
x2 = 0.8011
  mass density: 1432.1 kg/m3

## CCCC[n+]1ccn(C)c1.O=S(=O)([N-]S(=O)(=O)C(F)(F)F)C(F)(F)F + CCCCCCCCCC[n+]1ccn(C)c1.O=S(=O)([N-]S(=O)(=O)C(F)(F)F)C(F)(F)F
x1 = 1
  mass density: 1436.9 kg/m3

## CCCCCCCCn1cc[n+](C)c1.O=S(=O)([N-]S(=O)(=O)C(F)(F)F)C(F)(F)F + CCCC[n+]1ccn(C)c1.O=S(=O)([N-]S(=O)(=O)C(F)(F)F)C(F)(F)F
x2 = 0
  mass density: 1322.4 kg/m3
x2 = 0.2068
  mass density: 1342.8 kg/m3
x2 = 0.5017
  mass density: 1374.3 kg/m3
x2 = 0.7944
  mass density: 1409.6 kg/m3

## CCCCCC[n+]1ccn(C)c1.O=S(=O)([N-]S(=O)(=O)C(F)(F)F)C(F)(F)F + CCCC[n+]1ccn(C)c1.O=S(=O)([N-]S(=O)(=O)C(F)(F)F)C(F)(F)F
x2 = 0
  mass density: 1373.2 kg/m3
x2 = 0.5001
  mass density: 1404.3 kg/m3
x2 = 0.5894
  mass density: 1410 kg/m3
x2 = 0.793
  mass density: 1423.2 kg/m3

## Cn1cc[n+](C)c1.O=S(=O)([N-]S(=O)(=O)C(F)(F)F)C(F)(F)F + CCCC[n+]1ccn(C)c1.O=S(=O)([N-]S(=O)(=O)C(F)(F)F)C(F)(F)F
x1 = 0.1962
  mass density: 1459.6 kg/m3
x1 = 0.498
  mass density: 1498 kg/m3
x1 = 0.5859
  mass density: 1509.6 kg/m3
x1 = 0.7894
  mass density: 1538.7 kg/m3

## CCCC[n+]1ccn(C)c1.O=S(=O)([N-]S(=O)(=O)C(F)(F)F)C(F)(F)F + CCCCCCCCn1cc[n+](C)c1.O=S(=O)([N-]S(=O)(=O)C(F)(F)F)C(F)(F)F
x1 = 1
  mass density: 1436.9 kg/m3

## CCCC[n+]1ccn(C)c1.O=S(=O)([N-]S(=O)(=O)C(F)(F)F)C(F)(F)F + CCCCCC[n+]1ccn(C)c1.O=S(=O)([N-]S(=O)(=O)C(F)(F)F)C(F)(F)F
x1 = 1
  mass density: 1436.9 kg/m3

## CCCC[n+]1ccn(C)c1.O=S(=O)([N-]S(=O)(=O)C(F)(F)F)C(F)(F)F + CC[n+]1ccn(C)c1.O=S(=O)([N-]S(=O)(=O)C(F)(F)F)C(F)(F)F
x2 = 0
  mass density: 1436.9 kg/m3
